# The campaign covered roughly 3,200 compounds. About 300 (9.4%) showed activity. The list shows a part of the results, in another mix than the full data.
# Test system: A673/TR/shEF
# Test: cell viability (LOESS-normalised, relative to median of negative controls) (log2 ratio); higher = more viable cells (less compound effect), active = hit call of the paper (over 3 MAD below the median)
# Conditions: treatment time: 72 h
# Summary of the method: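 A673/TR/shEF Ewing sarcoma cells were plated at 1,500 per well in 384-well plates and cultured with or without doxycycline, added 24 h before compounds, to induce EWS-FLI1 shRNA knockdown. Library compounds at two or more concentrations, alongside DMSO controls, were applied for three days. Cell viability was measured by CellTiter-Glo luminescence on an Envision reader. Readings were LOESS-corrected per plate, divided by the median of negative controls and log2-transformed, and hits were wells lying at least three median absolute deviations from the median of all screened wells.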
# [1] = 0.25 µM, library screen: screen2, EWS-FLI1 expression: high (no doxycycline)
# [2] = 0.25 µM, library screen: screen2, EWS-FLI1 expression: low (doxycycline-induced shRNA knockdown)
# [3] = 2.5 µM, library screen: screen2, EWS-FLI1 expression: high (no doxycycline)
# [4] = 2.5 µM, library screen: screen2, EWS-FLI1 expression: low (doxycycline-induced shRNA knockdown)
# [5] = 0.103 µM, library screen: screen3, EWS-FLI1 expression: high (no doxycycline)
# [6] = 0.103 µM, library screen: screen3, EWS-FLI1 expression: low (doxycycline-induced shRNA knockdown)
# [7] = 0.25 µM, library screen: screen1, EWS-FLI1 expression: high (no doxycycline)
# [8] = 0.25 µM, library screen: screen1, EWS-FLI1 expression: low (doxycycline-induced shRNA knockdown)
# [9] = 0.308 µM, library screen: screen3, EWS-FLI1 expression: high (no doxycycline)
# [10] = 0.308 µM, library screen: screen3, EWS-FLI1 expression: low (doxycycline-induced shRNA knockdown)
# [11] = 0.926 µM, library screen: screen3, EWS-FLI1 expression: high (no doxycycline)
# [12] = 0.926 µM, library screen: screen3, EWS-FLI1 expression: low (doxycycline-induced shRNA knockdown)
# [13] = 2.5 µM, library screen: screen1, EWS-FLI1 expression: high (no doxycycline)
# [14] = 2.5 µM, library screen: screen1, EWS-FLI1 expression: low (doxycycline-induced shRNA knockdown)
# [15] = 2.8 µM, library screen: screen3, EWS-FLI1 expression: high (no doxycycline)
# [16] = 2.8 µM, library screen: screen3, EWS-FLI1 expression: low (doxycycline-induced shRNA knockdown)
# [17] = 8.3 µM, library screen: screen3, EWS-FLI1 expression: high (no doxycycline)
# [18] = 8.3 µM, library screen: screen3, EWS-FLI1 expression: low (doxycycline-induced shRNA knockdown)
# [19] = 25 µM, library screen: screen3, EWS-FLI1 expression: high (no doxycycline)
# [20] = 25 µM, library screen: screen3, EWS-FLI1 expression: low (doxycycline-induced shRNA knockdown)
compound,measurement,setting,value
Cn1c(=O)c2[nH]c(-c3ccccc3)nc2n(C)c1=O,cell viability (log2),[1],inactive: 0.122
same,cell viability (log2),[2],inactive: 0.0406
same,cell viability (log2),[3],inactive: 0.0445
same,cell viability (log2),[4],inactive: 0.0254
NS(=O)(=O)c1cc2c(cc1Cl)NC=NS2(=O)=O,cell viability (log2),[5],inactive: 0.138
same,cell viability (log2),[6],inactive: 0.0545
same,cell viability (log2),[7],inactive: 0.00612
same,cell viability (log2),[8],inactive: 0.0491
same,cell viability (log2),[1],inactive: 0.156
same,cell viability (log2),[2],inactive: 0.0723
same,cell viability (log2),[9],inactive: 0.112
same,cell viability (log2),[10],inactive: 0.103
same,cell viability (log2),[11],inactive: 0.0845
same,cell viability (log2),[12],inactive: 0.0899
same,cell viability (log2),[13],inactive: 0.136
same,cell viability (log2),[14],inactive: 0.208
same,cell viability (log2),[3],inactive: 0.111
same,cell viability (log2),[4],inactive: 0.078
same,cell viability (log2),[15],inactive: 0.171
same,cell viability (log2),[16],inactive: 0.125
same,cell viability (log2),[17],inactive: 0.0654
same,cell viability (log2),[18],inactive: 0.0798
same,cell viability (log2),[19],inactive: 0.0494
same,cell viability (log2),[20],inactive: 0.139
CC(=O)O[C@@H]1CC2C(C)(C)CCC(=O)[C@]2(C)C2CC[C@@]3(C)[C@H](c4ccoc4)OC(=O)C4OC43[C@@]21C (stereo not given in full),cell viability (log2),[7],inactive: 0.0305
same,cell viability (log2),[8],inactive: 0.0828
same,cell viability (log2),[13],inactive: 0.127
same,cell viability (log2),[14],inactive: 0.0866
CN1CCN(C2Cc3ccccc3Sc3ccc(Cl)cc32)CC1 (stereo not given),cell viability (log2),[1],inactive: 0.121
same,cell viability (log2),[2],inactive: 0.0659
same,cell viability (log2),[3],inactive: 0.0476
same,cell viability (log2),[4],inactive: 0.0359
NS(=O)(=O)c1cc2c(cc1Cl)NC(C(Cl)Cl)NS2(=O)=O (stereo not given),cell viability (log2),[7],inactive: 0.0496
same,cell viability (log2),[8],inactive: 0.145
same,cell viability (log2),[13],inactive: 0.174
same,cell viability (log2),[14],inactive: 0.206
CN[C@@H]1[C@H](O)[C@H](NC)[C@H]2O[C@@]3(O)C(=O)C[C@@H](C)O[C@H]3O[C@@H]2[C@H]1O,cell viability (log2),[5],inactive: 0.0855
same,cell viability (log2),[6],inactive: 0.0941
same,cell viability (log2),[7],inactive: 0.118
same,cell viability (log2),[8],inactive: 0.0608
same,cell viability (log2),[9],inactive: 0.12
same,cell viability (log2),[10],inactive: 0.1
same,cell viability (log2),[11],inactive: 0.119
same,cell viability (log2),[12],inactive: 0.0426
same,cell viability (log2),[13],inactive: 0.12
same,cell viability (log2),[14],inactive: 0.102
same,cell viability (log2),[15],inactive: 0.0429
same,cell viability (log2),[16],inactive: 0.0599
same,cell viability (log2),[17],inactive: 0.0864
same,cell viability (log2),[18],inactive: 0.0884
same,cell viability (log2),[19],inactive: 0.0812
same,cell viability (log2),[20],inactive: 0.13
CN[C@H](CC(=O)O)C(=O)O,cell viability (log2),[7],inactive: 0.00235
same,cell viability (log2),[8],inactive: 0.0602
same,cell viability (log2),[1],inactive: 0.204
same,cell viability (log2),[2],inactive: 0.0919
same,cell viability (log2),[13],inactive: 0.0429
same,cell viability (log2),[14],inactive: 0.111
same,cell viability (log2),[3],inactive: 0.13
same,cell viability (log2),[4],inactive: 0.0445
COc1ccc2c(c1)c(CC(=O)Nc1ccc(NC(C)=O)cc1)c(C)n2C(=O)c1ccc(Cl)cc1,cell viability (log2),[1],inactive: -0.0274
same,cell viability (log2),[2],inactive: 0.0874
same,cell viability (log2),[3],inactive: 0.0757
same,cell viability (log2),[4],inactive: 0.214
CN(N=O)C(=O)N[C@@H]1[C@@H](O)[C@H](O)[C@@H](CO)O[C@@H]1O,cell viability (log2),"0.025 µM, library screen: screen2, EWS-FLI1 expression: high (no doxycycline)",inactive: 0.107
same,cell viability (log2),"0.025 µM, library screen: screen2, EWS-FLI1 expression: low (doxycycline-induced shRNA knockdown)",inactive: 0.0491
same,cell viability (log2),[5],inactive: 0.0693
same,cell viability (log2),[6],inactive: 0.0836
same,cell viability (log2),[7],inactive: 0.057
same,cell viability (log2),[8],inactive: -0.0645
same,cell viability (log2),[1],inactive: 0.161
same,cell viability (log2),[2],inactive: 0.048
same,cell viability (log2),[9],inactive: 0.0762
same,cell viability (log2),[10],inactive: 0.0798
same,cell viability (log2),[11],inactive: 0.162
same,cell viability (log2),[12],inactive: 0.137
same,cell viability (log2),[13],inactive: 0.143
same,cell viability (log2),[14],inactive: 0.0187
same,cell viability (log2),[3],inactive: 0.179
same,cell viability (log2),[4],inactive: 0.059
same,cell viability (log2),[15],inactive: 0.133
same,cell viability (log2),[16],inactive: 0.0421
same,cell viability (log2),[17],inactive: 0.135
same,cell viability (log2),[18],inactive: 0.04
same,cell viability (log2),"25 µM, library screen: screen2, EWS-FLI1 expression: high (no doxycycline)",inactive: 0.177
same,cell viability (log2),"25 µM, library screen: screen2, EWS-FLI1 expression: low (doxycycline-induced shRNA knockdown)",inactive: 0.0357
same,cell viability (log2),[19],inactive: 0.137
same,cell viability (log2),[20],inactive: 0.0878
Cc1ccc(-c2nn(C(C)(C)C)c3ncnc(N)c23)cc1,cell viability (log2),"0.025 µM, library screen: screen1, EWS-FLI1 expression: high (no doxycycline)",inactive: 0.00835
same,cell viability (log2),"0.025 µM, library screen: screen1, EWS-FLI1 expression: low (doxycycline-induced shRNA knockdown)",inactive: -0.00557
same,cell viability (log2),[7],inactive: 0.0184
same,cell viability (log2),[8],inactive: 0.0452
same,cell viability (log2),[13],inactive: -0.0765
same,cell viability (log2),[14],inactive: 0.104
same,cell viability (log2),"25 µM, library screen: screen1, EWS-FLI1 expression: high (no doxycycline)",active: -0.108
same,cell viability (log2),"25 µM, library screen: screen1, EWS-FLI1 expression: low (doxycycline-induced shRNA knockdown)",inactive: -0.07
NCCCC(=O)O,cell viability (log2),[7],inactive: 0.0628
same,cell viability (log2),[8],inactive: 0.0888
same,cell viability (log2),[1],inactive: 0.148
same,cell viability (log2),[2],inactive: 0.12
same,cell viability (log2),[13],inactive: 0.21
same,cell viability (log2),[14],inactive: 0.0413
same,cell viability (log2),[3],inactive: 0.0279
same,cell viability (log2),[4],inactive: 0.142
NCCc1cnc[nH]1,cell viability (log2),[7],inactive: 0.0774
same,cell viability (log2),[8],inactive: 0.0793
same,cell viability (log2),[1],inactive: 0.172
same,cell viability (log2),[2],inactive: 0.046
same,cell viability (log2),[13],inactive: 0.16
same,cell viability (log2),[14],inactive: 0.0294
same,cell viability (log2),[3],inactive: 0.142
same,cell viability (log2),[4],inactive: 0.101
Cc1sc2c(=O)n3c(nc2c1C(=O)NCCc1ccccc1)CCCCC3,cell viability (log2),[7],inactive: 0.129
same,cell viability (log2),[8],inactive: 0.0568
same,cell viability (log2),[13],inactive: 0.167
same,cell viability (log2),[14],inactive: 0.136
OC[C@H]1NC[C@H](O)[C@@H](O)[C@@H]1O,cell viability (log2),[1],inactive: 0.273
same,cell viability (log2),[2],inactive: 0.124
same,cell viability (log2),[3],inactive: 0.177
same,cell viability (log2),[4],inactive: 0.145
